# Assay results taken from paper PMC4336329 (PLoS ONE, 2015).
# The whole screen tested about 310,000 compounds, of which about 14,000 (4.5%) showed an effect of 50% or more. Effects have a minus sign here. The list shows a part of the results.
# Target: human ether-à-go-go-related gene (hERG) potassium channel (human, UniProt Q12809)
# Assay: primary screen, population patch clamp on CHO cells stably expressing hERG
# 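Further: peak tail current of the secondary pulse compared with the same well before compound.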
# Sequence of human ether-à-go-go-related gene (hERG) potassium channel (Q12809 whole entry, looked up): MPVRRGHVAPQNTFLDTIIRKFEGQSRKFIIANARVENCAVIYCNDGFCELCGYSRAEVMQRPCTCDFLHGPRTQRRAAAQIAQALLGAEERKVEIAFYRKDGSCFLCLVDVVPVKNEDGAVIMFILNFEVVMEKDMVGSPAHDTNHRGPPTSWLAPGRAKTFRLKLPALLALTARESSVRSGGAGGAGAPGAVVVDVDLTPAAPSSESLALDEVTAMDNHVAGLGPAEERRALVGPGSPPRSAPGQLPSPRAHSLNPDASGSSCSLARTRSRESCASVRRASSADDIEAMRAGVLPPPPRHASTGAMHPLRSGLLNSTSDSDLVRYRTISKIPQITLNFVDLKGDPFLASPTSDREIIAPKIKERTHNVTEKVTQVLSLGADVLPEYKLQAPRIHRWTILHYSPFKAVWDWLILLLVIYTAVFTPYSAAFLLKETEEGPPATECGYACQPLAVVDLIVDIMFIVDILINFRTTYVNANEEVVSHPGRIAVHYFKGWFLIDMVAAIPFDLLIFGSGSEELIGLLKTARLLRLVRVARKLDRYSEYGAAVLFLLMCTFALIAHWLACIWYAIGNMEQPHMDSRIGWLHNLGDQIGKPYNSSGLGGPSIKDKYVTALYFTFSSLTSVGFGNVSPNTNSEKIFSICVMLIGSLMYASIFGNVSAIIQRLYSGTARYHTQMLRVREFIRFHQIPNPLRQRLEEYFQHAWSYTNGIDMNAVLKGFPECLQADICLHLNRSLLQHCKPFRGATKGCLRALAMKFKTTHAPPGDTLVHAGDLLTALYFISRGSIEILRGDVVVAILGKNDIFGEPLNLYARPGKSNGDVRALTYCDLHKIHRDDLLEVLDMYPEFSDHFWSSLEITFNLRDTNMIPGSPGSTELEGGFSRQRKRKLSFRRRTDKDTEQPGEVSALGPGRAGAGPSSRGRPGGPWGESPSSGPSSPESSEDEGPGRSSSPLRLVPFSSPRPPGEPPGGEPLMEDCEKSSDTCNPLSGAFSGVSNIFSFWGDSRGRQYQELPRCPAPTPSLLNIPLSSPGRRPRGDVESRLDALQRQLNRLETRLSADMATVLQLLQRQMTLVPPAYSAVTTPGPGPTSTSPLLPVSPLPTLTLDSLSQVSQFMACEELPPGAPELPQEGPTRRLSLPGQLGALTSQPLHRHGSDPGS
row,Compound,"hERG current change (%, negative = inhibition) at 10uM [%]"
1,Cc1ccc(C=Nc2cc([N+](=O)[O-])ccc2C)s1,9.91
2,CC(NC(=O)c1ccc(Cl)s1)C1CCCO1 (stereo not drawn),12.7
3,COc1ccc(C2=NN(C(=O)CCC(=O)O)C(c3ccccc3F)C2)cc1 (stereo not drawn),-1.97
4,O=C(/C=C/c1ccccc1)NC(=S)NNS(=O)(=O)c1ccccc1,9.78
5,O=S(=O)(NC1=NCCCCC1)c1ccccc1Cl,14.7
6,COc1ccc(OC)c(/C=C/C(=O)Nc2cccc(S(=O)(=O)N3CCCC3)c2)c1,23.4
7,CCOC(=O)c1sc2nc3c(cc2c1N)COC(C)(C)C3,18.7
8,COc1ccc(/C=C2\SC(N3CCCCC3)=NC2=O)cc1OC,-2.88
9,CC(C)c1ccc(OCC(=O)NNC(=S)NC(=O)c2cccs2)c(Br)c1,11.3
10,Cc1ccc2c(CN3CCC(C)CC3)cc(=O)oc2c1,-50
11,COC(=O)[C@H](CC(C)C)NS(=O)(=O)c1ccccc1,2.21
12,Cc1ccc(OCC(=O)Nn2cnnc2)c(Br)c1,1.46
13,Cc1c(Cl)cccc1-n1c(SCC(=O)N2CCC(C(=O)O)CC2)nc2ccccc2c1=O,8.42
14,Cc1ccc(F)cc1CNC(=O)c1cc(COc2ccc3ncccc3c2)on1,5.04
15,CCOC(=O)C1CCN(C(=O)c2ccccc2N(C)S(=O)(=O)c2ccccc2)CC1,-7.23
16,COc1cc(CNCC2CCCO2)ccc1OCC(N)=O.Cl (stereo not drawn),16.3
17,CCOC(=O)N1CCN(c2cc(NCCO)c([N+](=O)[O-])c3nonc23)CC1,31.2
18,O=C(NCc1nc(-c2ccccc2)no1)c1cccs1,-7.36
19,Cc1ccc(Nc2nc(N)nc(CSCCO)n2)cc1,8.72
20,Cc1ccc(C)c(N2CCN(C(=O)c3ccc(CS(=O)Cc4ccc(Cl)cc4)o3)CC2)c1 (stereo not drawn),-26.9
21,COc1ccccc1C(c1nnnn1C(C)C)N1CCN(C(=O)c2ccco2)CC1 (stereo not drawn),1.24
22,O=C(CSC(=S)N1CCN(c2ccccc2)CC1)Nc1nc(-c2ccccc2)c(-c2ccccc2)o1,-2.74
23,Cc1nc2cc(NC(=O)c3ccc([N+](=O)[O-])s3)ccc2s1,-9.99

row,Compound,"hERG current change (%, negative = inhibition) at 10uM [%]"
1,Cc1ccsc1/C=N/NC(=O)c1ccccn1,3.44
2,COc1ccc(S(=O)(=O)N2c3cc(C)ccc3OCC2C(C)(C)C)cc1 (stereo not drawn),11.6
3,Cc1cccc(NC(=O)C2CCCN(C(=O)NCc3ccccc3)C2)c1C (stereo not drawn),12.6
4,O=S(=O)(c1cnccc1N1CCN(/N=C/c2ccc(Br)cc2)CC1)N1CCCCC1,13
5,O=C(CN1CCOCC1)Nc1nc(-c2ccccc2Cl)cs1,-17.6
6,CCN(CC)Cc1c(O)ccc2c(=O)c(-c3ccc(Cl)cc3)coc12,-58.4
7,CC(C)CN(CC(C)C)S(=O)(=O)N1CCC(C(=O)NCc2cccs2)CC1,3.91
8,O=C(NCCCN1CCCC1=O)c1cn(-c2ccccc2)nc1-c1ccccc1,-10.6
9,O=C(NCc1ccco1)c1ccc(Cl)c(S(=O)(=O)N2CCOCC2)c1,-7.4
10,Cc1ccc(C2CC(=O)Nc3sc(C(N)=O)c(N)c32)cc1 (stereo not drawn),0.514
11,CSc1cccc(NC(=O)N2CCN(C)CC2)c1,-31.1
12,COc1cc2cc(CCCOC(=O)c3ccco3)oc(=O)c2cc1OC,-6.2
13,Cc1occc1C(=O)NCc1cccc(CNC(=O)c2ccoc2C)c1,6.74
14,CC(=O)NCC(=O)NC1(C(=O)NC2CCCC2)CCCCC1,10.1
15,COc1cccc(C(=O)COc2ccc(NC(=O)c3cccs3)cc2)c1,17.5
16,Cc1cccc(C)c1NC(=S)N1CCC(c2ccccc2)C1 (stereo not drawn),9.47
17,COc1ccc(N2CCN(C(CNC(=O)c3cccc(Cl)c3)c3cccnc3)CC2)cc1 (stereo not drawn),-38.7
18,O=C(Nc1cccc(C(F)(F)F)c1)c1ccc2nc(-c3ccco3)c(-c3ccco3)nc2c1,7.95
19,N#Cc1cc(C(=O)c2cc(Br)ccc2O)cn(Cc2ccccc2)c1=O,24.9
20,O=C(c1ccc(-n2c(SCc3cccc(F)c3)nc3ccccc3c2=O)cc1)N1CCOCC1,-3.57
21,Nc1n[nH]c(C2CC2)c1N=Nc1ccc(Cl)cc1,-1.16
22,CC(C)(C)c1[nH]nc2c1C(Cc1ccccc1)C(C#N)=C(N)O2 (stereo not drawn),-4.31
